Assay results as given in the RNAGym collection of RNA variant scans (doi:10.7554/elife.90254).
The source gives no read counts; variants with many changes may rest on few reads.

B1: OR4K15 (parent)
chain: GUUAACGGUCAUAGGCCAUGGAAACUAGGAGCACCAUUUCGCUGCCAGUGAAGAAAUGAACAAAGAAAAUCUGGGCCAGGCAGGCAUCAAAAGAAAUAGUCUUGCGCUCAACCAGAAAGUCUGUAAUCAUUUUAAGGGUA

Variants of: B1
Test: self-cleavage, relative activity (ratio to wild type); higher = more cleavage; in vitro, sequencing; the parent is a self-cleaving ribozyme
A5G C16A A94G gave a self-cleavage of 1.1. U2C C10U C121U A129G showed a self-cleavage of 1.32. In the case of A90U U97A A117G, the self-cleavage is reported as 2.93. A54G A92G U131C gave a self-cleavage of 1.26. In the case of G58U A68G A95U U102C, the self-cleavage is reported as 2.26. Work on G7A U49C A94U yielded a self-cleavage of 1.32. For A66G A92G A126G, the self-cleavage was 0.91. For U43A A63G A86G A125G U131C, the self-cleavage was 0.72. Variant U2A A56G U57C A63G A89G A126G U133G has a self-cleavage of 0.21. For U12A U103A U122C, the self-cleavage was 1.21. For A62U A110U U133C U139C, the self-cleavage was 1.31. A23G U38C A59G A89G gave a self-cleavage of 0.94. For C6U G48A U100C U132G, the self-cleavage was 1.95. A23G A52U A129G gave a self-cleavage of 0.6. Work on U19A A23U A68G C121A yielded a self-cleavage of 1.52. For A13G A68G G80A A111U U122A, the self-cleavage was 0.08. For U2A G7A C10U A56G A125G U132C, the self-cleavage was 0.49. A23C A47U U49G A140G showed a self-cleavage of 0.49. A30C A94G U100C gave a self-cleavage of 1.62. With A59U A60G C113G A114G the self-cleavage was 0.01. A5G G41A A114U showed a self-cleavage of 0.06. U12C A47G A52G A56G A91G A92U U103C showed a self-cleavage of 0.38. A51G U87C U124C gave a self-cleavage of 0.88. Work on A18G A33G C81U yielded a self-cleavage of 0.03. With A11U G41A A89G the self-cleavage was 1.27. For U9G A86U U122C, the self-cleavage was 1.04. For A51U A91G U100C U102C, the self-cleavage was 1.36. Variant U12C A13G A18G A64G U72C has a self-cleavage of 0.56. A55G A63G A67U A89G gave a self-cleavage of 0.86. With A13U A33C U37C A63G the self-cleavage was 1.43. With A51G U72C U108C A118U the self-cleavage was 0. U19C A24G U37C A54G A63G A66U U87C showed a self-cleavage of 0.87. For A23G A51U A54G A117U, the self-cleavage was 0.82. Work on U38C U43C A78G U97C U132C yielded a self-cleavage of 0.15. U9G U100A A114G showed a self-cleavage of 0.16. Variant A23G A56G U57C A126G has a self-cleavage of 0.24. A24U U37C A67G A129U U130C gave a self-cleavage of 0.76. In the case of A67G A110G A116U, the self-cleavage is reported as 0.07. Work on A69G U103G U131C yielded a self-cleavage of 0. Work on A36C A64G U100C A117G yielded a self-cleavage of 2.65. Work on A22G A95G U131C yielded a self-cleavage of 2.62. U2C A22G A33G U57C A67G A117G A140U showed a self-cleavage of 0.33. Variant A11C U49G A60G U97C A111G has a self-cleavage of 0. A22G A36G U43C U131C U139A showed a self-cleavage of 1.2. For U2C U38C A114U, the self-cleavage was 0.17. In the case of A5G U9C G14A U39C G41A A56G U87G A116G, the self-cleavage is reported as 0.11. Work on C16A U87A A94G A129G yielded a self-cleavage of 1.04. U39C A47G A60G A67G C77U C109A gave a self-cleavage of 0.08. With A27G U39C U72G the self-cleavage was 0.23. A62G A110G U130C showed a self-cleavage of 0.1. Work on U39C A86G U100C yielded a self-cleavage of 1.95. For A24G A59G U103C, the self-cleavage was 0.49. In the case of G7A U108C U122C A126G A129U, the self-cleavage is reported as 0.01. A5G A78G A117G showed a self-cleavage of 0.57. With U3A A4G U97C the self-cleavage was 1.5. Variant A111G A118U U122C U124C has a self-cleavage of 0.01. With U2A A23G A27G the self-cleavage was 1.11. Variant A78G U122C A126G has a self-cleavage of 0.06. Work on A68G A86G A95U yielded a self-cleavage of 1.3. Work on A54G A114U A118G yielded a self-cleavage of 0.07. Work on A23U A60G A91G A95G C105U A118U U122C yielded a self-cleavage of 0.04. Work on U70C U108C C113A yielded a self-cleavage of 0. Variant C40U A62G U131C has a self-cleavage of 1.84. Work on U26C A27G U108C A126G yielded a self-cleavage of 0.01. U38C A90U U131C showed a self-cleavage of 2.96. In the case of A5G A52G A55G G73A G75C U122A, the self-cleavage is reported as 0.08. Work on U19C A30G A52G yielded a self-cleavage of 0.89. In the case of A30G A56G A64C A110U, the self-cleavage is reported as 1.09. With A11G U19C A47U the self-cleavage was 1.38. Work on U9G U37A U49C U131C U139C yielded a self-cleavage of 0.29. Work on U70A C121U A129G yielded a self-cleavage of 2.17. In the case of A23G A27U A64C U103A U132C, the self-cleavage is reported as 0.11. For U37C A54G A60G G75C G136A, the self-cleavage was 0.16. In the case of U19C U124C A125U, the self-cleavage is reported as 1.05. A5G U37C G50A A94G A111G showed a self-cleavage of 0.08. U19A A24G A47G A60G A95G A98G U131A gave a self-cleavage of 0.94. U49C A62G A92C gave a self-cleavage of 1.48. Variant A51G A64G A82U U130C has a self-cleavage of 0.03. With A23G A89G A110G A117G the self-cleavage was 0.2. Variant A23G U38C A68U A69G U120C has a self-cleavage of 0.37. In the case of C34G A56G U87C U130C, the self-cleavage is reported as 1.02. A22G A63G A64G A66G U108C gave a self-cleavage of 0.1. For C35A A66U A98G G119U, the self-cleavage was 0.87. For A51U A67G U70C U139C, the self-cleavage was 0.61. U19A U43A U49G A62U A78G A89G C128U showed a self-cleavage of 0.13. Work on A23G A54U A63G U97C C121U yielded a self-cleavage of 0.99. With A22G U38C A52G U102A the self-cleavage was 0.96. For A22G G58U G75A U130C, the self-cleavage was 0.07. In the case of U2C A55G A111U, the self-cleavage is reported as 0.14. For A24G A60G U87C, the self-cleavage was 1.23. A67G A68G A126G showed a self-cleavage of 0.98. For A56G A82U U122C G138C, the self-cleavage was 0.11. A89U A94G A116G gave a self-cleavage of 0.98. Variant U19C A24G U43G A60U A94U has a self-cleavage of 1.66. Variant A18G A22G A55G A59G U103C U139A has a self-cleavage of 0.43. Variant A24G U37C U130C has a self-cleavage of 1.21. Work on U70G A111G U120A yielded a self-cleavage of 0.02. A33U A54G A96G gave a self-cleavage of 1.11. In the case of A23G U39C A59G, the self-cleavage is reported as 0.89. Variant A33G C61U A111G A114G has a self-cleavage of 0.03. Variant U39C U49A A64U has a self-cleavage of 1.61. A24G U108C U132A showed a self-cleavage of 0.03. Variant A82G U100C G104A has a self-cleavage of 0.03. U12C A47U A63U gave a self-cleavage of 0.61. U26C A60G A134G showed a self-cleavage of 0.83. Variant A22G A59C A90G has a self-cleavage of 0.26. Variant U2A U49A A64G A68G A69G has a self-cleavage of 1.11. With A27U U39C A51C A52G A117G A135G the self-cleavage was 2.5. For U122A U131C G136U G137C, the self-cleavage was 0. Work on A5U G44A A68G U87C yielded a self-cleavage of 1.05. With U49A A110G A111G the self-cleavage was 0.02. Work on U2C A18U A22G U124C yielded a self-cleavage of 0.59. With A91G C109U A135G the self-cleavage was 0.24. With A52U G73A A92G U102C the self-cleavage was 0.27. With A23G A27U U38A A59U the self-cleavage was 0.58. Variant C42U U72C A111G has a self-cleavage of 0.02. In the case of A33G A78G A86G A117G, the self-cleavage is reported as 0.08. With A30G A54G A59G the self-cleavage was 0.85. Variant A22G A47G A52G U103C has a self-cleavage of 0.21. For A62U A89C A92G A114G, the self-cleavage was 0.14. In the case of U9C G20A A47G A110G, the self-cleavage is reported as 0.05. For A11U U70C A86G A92G U97C A117G A118G, the self-cleavage was 0.18. A33G C40U A56G A114G G137A showed a self-cleavage of 0.35. Work on A5G U9C C32U yielded a self-cleavage of 0.92. For U3A A18G U70G U102C, the self-cleavage was 1.41. For U19C A51G A82G U122C, the self-cleavage was 0.12. For G14A A22U A62G A114G A116G, the self-cleavage was 0.05. With A5G A18U A78G A94U the self-cleavage was 0.25. G29C A60G A116G U120C gave a self-cleavage of 0.05. With U19C U49G A90G the self-cleavage was 1.24. For A51G A56G A129U, the self-cleavage was 1.51. A24G U26C A95G gave a self-cleavage of 0.86. For G21A U72A A111G, the self-cleavage was 0.02. In the case of A22G A68U U100C, the self-cleavage is reported as 2.32. For U9C A56G U87C A90G, the self-cleavage was 0.97. U70C A118G U120G showed a self-cleavage of 0.25. A52G A54G A86G A94U A96G A111U showed a self-cleavage of 0.15. U37C U39C U49C U100A C105U gave a self-cleavage of 0.06. A4G A33G A67G A90G A96G A114U showed a self-cleavage of 0.04. In the case of G29U A82C A95G, the self-cleavage is reported as 0.24. For U9A U12C A95G, the self-cleavage was 0.96. For U37A U43C A111C A117G, the self-cleavage was 0.01. In the case of A13G A55G A59G, the self-cleavage is reported as 1.49. For A11G U26C U127C U131C, the self-cleavage was 0.37. For U39G A52G A91G, the self-cleavage was 0.89. A51U A56G A129G showed a self-cleavage of 1.01. C34U A60G A82G gave a self-cleavage of 0.68. For U9G A90G A91G A116G U122C, the self-cleavage was 0.04. Work on U19C U70C A96G A111G yielded a self-cleavage of 0.01. For A23G A24G A27G A30G, the self-cleavage was 1.09. With A23G A47U U102C G104A the self-cleavage was 0.06. With U9A A90G U124A A129U the self-cleavage was 0.02. In the case of A30U U72G U127C, the self-cleavage is reported as 0.18. With A13G A23G A94G the self-cleavage was 1.27. A18G U39A A66G gave a self-cleavage of 0.91. For A59G C109U A111U, the self-cleavage was 0.07. With U2C A30G U100C the self-cleavage was 2.13. In the case of U26A A56G A78C A92G A94G, the self-cleavage is reported as 0.32. In the case of A5C U39C A89G A91G A129U, the self-cleavage is reported as 0.66. For A11C A63G A134G, the self-cleavage was 1.44. A24U A60G U108C showed a self-cleavage of 0.02. With A62C A64G A68G C81U A129G the self-cleavage was 0.17. Variant A13G U103A A140G has a self-cleavage of 2.53. In the case of A24U A60U U87C, the self-cleavage is reported as 1.69. With A33G A68U U139G the self-cleavage was 1.67. U37C U39A A66G A90G gave a self-cleavage of 1.12. For A56G A62C A78G A82U, the self-cleavage was 0.1.
